45 molecules from the supplement of paper PMC11369174, “Proteome-scale characterisation of motif-based interactome rewiring by disease mutations” (Molecular Systems Biology, 2024) can be followed below.

The other results are listed elsewhere or left out. The data scatter; read single values as rough.

Holding throughout (experiment): mutation enrichment score (mutant vs wild-type peptide binding to bait); baits are purified protein domains named by gene / domain / UniProt id / residues; peptides come from disordered regions of human proteins; higher = mutation enhances binding relative to wild type
Experiment [1] concerns the target MAP1LC3A_ATG8__Q9H492_2_121. The note with it: wild-type window: ….
Experiment [2] deals with MAP1LC3B_ATG8__Q9GZQ8_2_119. Particulars: wild-type window: ….
Experiment [3] addresses Keap1_KELCH__Q14145_321_609. Particulars: wild-type window: ….
For experiment [4], the target named is T1, PEX14_Pex14__O75381_16_84.
T1 chain: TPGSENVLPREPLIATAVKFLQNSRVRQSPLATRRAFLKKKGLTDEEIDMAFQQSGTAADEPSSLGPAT
Particulars: number of wild-type / mutant comparisons summed (bounds the score): 6; paper call: no_effect; wild-type window: ….

For experiment [5], the target named is T2, SIN3A_PAH__Q96ST3_295_383.
T2 chain: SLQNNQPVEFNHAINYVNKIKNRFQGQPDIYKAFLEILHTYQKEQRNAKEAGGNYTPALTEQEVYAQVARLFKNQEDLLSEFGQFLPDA
The note with it: number of wild-type / mutant comparisons summed (bounds the score): 5; paper call: no_effect; wild-type window: ….

The target in the next experiment is T3, SPOP_MATH__O43791_19_176.
T3 chain: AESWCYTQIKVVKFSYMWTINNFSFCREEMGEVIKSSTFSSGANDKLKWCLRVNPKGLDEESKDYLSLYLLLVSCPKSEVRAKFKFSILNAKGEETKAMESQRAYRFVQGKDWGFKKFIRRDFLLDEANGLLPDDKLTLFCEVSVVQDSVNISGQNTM
The note with it: number of wild-type / mutant comparisons summed (bounds the score): 6; paper call: no_effect; wild-type window: ….

The mark [6] stands for this setting: number of wild-type / mutant comparisons summed (bounds the score): 6, paper call: no_effect.
The mark [7] stands for this setting: number of wild-type / mutant comparisons summed (bounds the score): 18, paper call: diminished.
Where [8] appears, read: number of wild-type / mutant comparisons summed (bounds the score): 12, paper call: enhanced.
Where [9] appears, read: number of wild-type / mutant comparisons summed (bounds the score): 6, paper call: diminished.

Keap1_KELCH__Q14145_321_609, sequence (chain, as listed by the source): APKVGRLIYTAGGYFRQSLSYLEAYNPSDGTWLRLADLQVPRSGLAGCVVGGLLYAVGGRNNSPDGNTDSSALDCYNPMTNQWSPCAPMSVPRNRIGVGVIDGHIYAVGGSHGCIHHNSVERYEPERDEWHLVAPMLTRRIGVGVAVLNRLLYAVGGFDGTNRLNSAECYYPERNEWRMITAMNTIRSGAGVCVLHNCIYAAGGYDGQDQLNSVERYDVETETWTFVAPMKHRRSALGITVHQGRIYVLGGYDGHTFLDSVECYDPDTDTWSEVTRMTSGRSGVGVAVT

B1: R627W R627W (peptide)
chain: WDGFPLHYSERHGWGYLVPGWRDNLAKLPTGTTLESAGVVC
For the molecule B1, the mutation enrichment score in experiment [1] (setting [6]) and in experiment [2] (setting [6]) was 4 each time.

B2: E82D E82D (peptide)
chain: LQKEQEKAFFAQLQLDEETGDFLPIQPAQHIQSETSGSANY
Consider B2, for which the mutation enrichment score in experiment [3] (setting [7]) was -11.

B3: E82Q E82Q (peptide)
chain: LQKEQEKAFFAQLQLDEETGQFLPIQPAQHIQSETSGSANY
For the molecule B3, the mutation enrichment score in experiment [3] (setting [7]) is -8.1.

B4: E82V E82V (peptide)
chain: LQKEQEKAFFAQLQLDEETGVFLPIQPAQHIQSETSGSANY
For the molecule B4, the mutation enrichment score in experiment [3] (setting [7]) was -11.

B5: G316V G316V (peptide)
chain: SFANYLVGTLIPPSEDKASKVFFSYRADIFVQNLVPDWRGP
As to B5, the mutation enrichment score in experiment [1] (setting [6]) is 3; in experiment [4], 2.

B6: R3014H R3014H (peptide)
chain: SLERERCDGGLPGNTHLLPLHATDFEVLSTKFEMQDLCFLG
On to B6, for which the mutation enrichment score is 0.74 in experiment [1] (setting [6]) and 10 in experiment [2] (setting [8]).

B7: D77G D77G (peptide)
chain: ERQEQLQKEQEKAFFAQLQLGEETGEFLPIQPAQHIQSETS
Turning to B7, the mutation enrichment score in experiment [3] (setting [7]) was -7.1.

B8: D77Y D77Y (peptide)
chain: ERQEQLQKEQEKAFFAQLQLYEETGEFLPIQPAQHIQSETS
Consider B8, for which the mutation enrichment score in experiment [3] (setting [7]) was -7.1.

B9: R585L R585L (peptide)
chain: QDGLYIGVSLASPAEVTSSVLPDSWCALALA
Take B9: the mutation enrichment score was 8 in experiment [1] (setting [8]), -3 in experiment [5] and 4.5 in the experiment with SPOP_MATH__O43791_19_176.

B10: L647V L647V (peptide)
chain: PYPEDYGDIEIGSHRSSSSNVGADDGYMPMTPGAALAGSGS
For B10, in experiment [3] (setting [6]), the mutation enrichment score came to 4.2.

B11: D19Y D19Y (peptide)
chain: MAETVWSTDTGEAVYRSRDPYRNLRLRVHLQRITSSNFL
Regarding B11, the mutation enrichment score in experiment [3] (setting [6]) was -3.

B12: D152F D152F (peptide)
chain: GGGQHGLFGPGAGGLHHAHSFAQGHLLFPGLPEQHGPHGSQ
B12: the mutation enrichment score in experiment [1] (setting [6]) is -2.

B13: E79G E79G (peptide)
chain: QEQLQKEQEKAFFAQLQLDEGTGEFLPIQPAQHIQSETSGS
Consider B13, for which the mutation enrichment score in experiment [3] (setting [7]) was -11.

B14: E79K E79K (peptide)
chain: QEQLQKEQEKAFFAQLQLDEKTGEFLPIQPAQHIQSETSGS
Regarding B14, the mutation enrichment score in experiment [3] (setting [7]) is -11.

B15: E79V E79V (peptide)
chain: QEQLQKEQEKAFFAQLQLDEVTGEFLPIQPAQHIQSETSGS
B15: in experiment [3] (setting [7]), the mutation enrichment score is -11.

B16: E79D E79D (peptide)
chain: QEQLQKEQEKAFFAQLQLDEDTGEFLPIQPAQHIQSETSGS
As to B16, the mutation enrichment score in experiment [3] (number of wild-type / mutant comparisons summed (bounds the score): 18, paper call: no_effect) was -3.4.

B17: E79Q E79Q (peptide)
chain: QEQLQKEQEKAFFAQLQLDEQTGEFLPIQPAQHIQSETSGS
B17: the mutation enrichment score in experiment [3] (setting [7]) was -11.

B18: K31371E K31371E (peptide)
chain: CKDPFDKPSQPGELEILSISEDSVTLQWEKPECDGGKEILG
Turning to B18, the mutation enrichment score in experiment [1] (setting [6]) is -4.

B19: R10W R10W (peptide)
chain: MHLEGRDGRRYPGAPAVELLWTSVPSGLAE
For B19, the mutation enrichment score in experiment [3] (setting [6]) is -1.

B20: G497D G497D (peptide)
chain: SSHGPSDPTDRAEVEKDSGHDSTSVDSEGFSIPDTGSHCSS
For the molecule B20, the mutation enrichment score in experiment [1] (setting [6]) was found to be 2.

B21: G81S G81S (peptide)
chain: QLQKEQEKAFFAQLQLDEETSEFLPIQPAQHIQSETSGSAN
Take B21: the mutation enrichment score in experiment [3] (setting [7]) was -11.

B22: G81V G81V (peptide)
chain: QLQKEQEKAFFAQLQLDEETVEFLPIQPAQHIQSETSGSAN
For B22, the mutation enrichment score in experiment [3] (setting [7]) is -11.

B23: A118T A118T (peptide)
chain: HRAGARLDVRDAWGRLPVDLTEELGHRDVARYLRAAAGGTR
In the case of B23, the mutation enrichment score in experiment [1] (setting [6]) was determined as 4.

B24: G122S G122S (peptide)
chain: ARLDVRDAWGRLPVDLAEELSHRDVARYLRAAAGGTRGSNH
Take B24: in experiment [1] (setting [6]), the mutation enrichment score amounted to 1.

B25: D30N D30N (peptide)
chain: GGVPEQEDSVLFRRGTGQSDNSDIWDDTALIKAYDKAVASF
Turning to B25, the mutation enrichment score is 2 in experiment [1] (setting [6]) and -1 in experiment [4].

B26: V136M V136M (peptide)
chain: EEMDFRSGSPSDNSGAEEMEMSLAKPKHRVTMNEFEYLKLL
Take B26: in experiment [1] (setting [6]), the mutation enrichment score came to 2.

B27: L208P L208P (peptide)
chain: NNQFASFIDKVRFLEQQNQVPQTKWELLQQVDTSTRTHNLE
As to B27, in experiment [1] (setting [6]), the mutation enrichment score was -4.

B28: L208R L208R (peptide)
chain: NNQFASFIDKVRFLEQQNQVRQTKWELLQQVDTSTRTHNLE
In the case of B28, the mutation enrichment score in experiment [1] (setting [6]) was -4.

B29: K202Q K202Q (peptide)
chain: SLLKPPVVKWFKGKWVDLSSQVGQHLQLHDSYDRASKVYLF
On to B29, for which the mutation enrichment score in experiment [1] (setting [6]) is -2.9; in experiment [2] (setting [6]) it was 4.

B30: P114L P114L (peptide)
chain: LVVLHRAGARLDVRDAWGRLLVDLAEELGHRDVARYLRAAA
In the case of B30, in experiment [1] (setting [6]), the mutation enrichment score amounted to 1.

B31: Q208H Q208H (peptide)
chain: VVKWFKGKWVDLSSKVGQHLHLHDSYDRASKVYLFELHITD
In the case of B31, in experiment [1] (setting [9]), the mutation enrichment score was -6.

B32: R1114W R1114W (peptide)
chain: VEFTVHVALAFLTAIGDKNRWAVLALEHMFAPVLDGAVSTL
As to B32, the mutation enrichment score in experiment [1] (setting [8]) stood at 7; in experiment [2] (number of wild-type / mutant comparisons summed (bounds the score): 12, paper call: no_effect), 5.

B33: L117M L117M (peptide)
chain: LHRAGARLDVRDAWGRLPVDMAEELGHRDVARYLRAAAGGT
As to B33, in experiment [1] (setting [6]), the mutation enrichment score is 1.

B34: E1391K E1391K (peptide)
chain: EQPNEQHPVSLAPLDESNSYKHLTLSDKEVQMHFAELQEKF
Turning to B34, the mutation enrichment score in experiment [1] (setting [9]) was -6; in experiment [2] (setting [7]) it was -9.

B35: D460H D460H (peptide)
chain: PRLLQVLKQTRDLETKKQITHHTVNLRSRNGWPGAVAHACN
On to B35, for which the mutation enrichment score in experiment [1] (setting [6]) turned out to be 2.

B36: T80A T80A (peptide)
chain: EQLQKEQEKAFFAQLQLDEEAGEFLPIQPAQHIQSETSGSA
As to B36, the mutation enrichment score in experiment [3] (setting [7]) was -11.

B37: T80K T80K (peptide)
chain: EQLQKEQEKAFFAQLQLDEEKGEFLPIQPAQHIQSETSGSA
Take B37: the mutation enrichment score in experiment [3] (setting [7]) is -11.

B38: T80I T80I (peptide)
chain: EQLQKEQEKAFFAQLQLDEEIGEFLPIQPAQHIQSETSGSA
On to B38, for which the mutation enrichment score in experiment [3] (setting [7]) was -11.

B39: R112H R112H (peptide)
chain: DTLVVLHRAGARLDVRDAWGHLPVDLAEELGHRDVARYLRA
As for B39, the mutation enrichment score in experiment [1] (number of wild-type / mutant comparisons summed (bounds the score): 6, paper call: enhanced) was found to be 6.

B40: R112S R112S (peptide)
chain: DTLVVLHRAGARLDVRDAWGSLPVDLAEELGHRDVARYLRA
For the molecule B40, in experiment [1] (setting [6]), the mutation enrichment score is 2.

B41: W308S W308S (peptide)
chain: EVDAQGEEMKEEFETYADALSWGLITLATIGYGDKTPKTWE
In the case of B41, the mutation enrichment score in experiment [1] (setting [6]) amounted to 5.

B42: K219R K219R (peptide)
chain: TMKEELDFQKNIYSEELRETRRRHETRLVEIDNGKQREFES
As for B42, in experiment [1] (setting [6]), the mutation enrichment score came to 2.

B43: Q461P Q461P (peptide)
chain: DRVFSSPRGVAAKGKGSPQAPTVRRSPSADQSLEDSPSKVP
On to B43, for which the mutation enrichment score in experiment [1] (setting [6]) was -2.

B44: V871L V871L (peptide)
chain: SAQKITKSVKAPTVKPSETRLRAEPTPLPQFPFADTPDTYK
Regarding B44, the mutation enrichment score in experiment [1] (setting [6]) was -2.

B45: D108N D108N (peptide)
chain: EGFLDTLVVLHRAGARLDVRNAWGRLPVDLAEELGHRDVAR
For B45, the mutation enrichment score in experiment [1] (setting [6]) stood at 0.
